Reference: patent US20250011380A1 (published 2025)

T1: IL2Rαβγ on CTLL2 cells
T1 sequence (P01590 whole entry, species assumed, looked up): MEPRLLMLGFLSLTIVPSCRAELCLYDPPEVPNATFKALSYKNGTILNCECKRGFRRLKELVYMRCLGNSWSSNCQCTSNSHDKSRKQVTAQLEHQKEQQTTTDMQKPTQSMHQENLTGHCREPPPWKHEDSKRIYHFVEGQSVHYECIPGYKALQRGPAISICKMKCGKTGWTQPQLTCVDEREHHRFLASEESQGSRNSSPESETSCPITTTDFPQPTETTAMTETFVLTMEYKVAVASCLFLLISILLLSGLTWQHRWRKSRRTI
T1 sequence (P16297 whole entry, species assumed, looked up): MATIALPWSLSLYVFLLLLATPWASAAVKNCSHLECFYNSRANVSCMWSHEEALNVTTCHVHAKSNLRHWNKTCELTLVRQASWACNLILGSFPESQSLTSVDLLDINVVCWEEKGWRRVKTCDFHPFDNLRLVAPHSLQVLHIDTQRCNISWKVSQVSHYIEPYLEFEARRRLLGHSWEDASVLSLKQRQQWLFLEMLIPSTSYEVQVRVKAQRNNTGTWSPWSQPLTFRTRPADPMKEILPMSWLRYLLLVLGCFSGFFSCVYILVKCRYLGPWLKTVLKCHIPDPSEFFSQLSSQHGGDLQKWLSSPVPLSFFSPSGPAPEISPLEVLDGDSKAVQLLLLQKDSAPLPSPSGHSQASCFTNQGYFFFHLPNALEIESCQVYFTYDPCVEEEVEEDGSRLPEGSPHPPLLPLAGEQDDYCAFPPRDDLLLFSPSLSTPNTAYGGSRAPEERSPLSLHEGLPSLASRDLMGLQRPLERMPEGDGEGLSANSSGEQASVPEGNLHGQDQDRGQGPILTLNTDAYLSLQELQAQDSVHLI
T1 sequence (P34902 whole entry, species assumed, looked up): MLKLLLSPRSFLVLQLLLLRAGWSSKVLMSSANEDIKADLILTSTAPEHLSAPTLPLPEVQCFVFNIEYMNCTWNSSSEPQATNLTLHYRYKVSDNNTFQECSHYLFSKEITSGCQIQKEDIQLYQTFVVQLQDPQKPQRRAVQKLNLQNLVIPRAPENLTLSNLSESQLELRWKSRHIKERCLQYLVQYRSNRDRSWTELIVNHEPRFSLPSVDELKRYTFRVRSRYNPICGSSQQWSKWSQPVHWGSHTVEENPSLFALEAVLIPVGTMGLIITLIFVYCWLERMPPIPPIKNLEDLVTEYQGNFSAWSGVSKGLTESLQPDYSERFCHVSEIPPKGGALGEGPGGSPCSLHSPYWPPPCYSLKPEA

T2: human CD16b expressed on CHO cells (human, UniProt O75015 17-200)
T2 construct: CHO cells transfected with human CD16b in a pMC plasmid; also called CHO cells expressing human CD16b
T2 chain: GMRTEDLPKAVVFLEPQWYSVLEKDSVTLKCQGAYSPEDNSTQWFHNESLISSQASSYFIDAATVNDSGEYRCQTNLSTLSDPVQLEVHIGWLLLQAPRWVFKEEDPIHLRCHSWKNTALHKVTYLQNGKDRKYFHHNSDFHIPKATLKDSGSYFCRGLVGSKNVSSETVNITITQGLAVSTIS

B1: IL-2/TF/IL-2 single-chain chimeric polypeptide (other)
chain: [… about 150 residues …]SGTTNTVAAYNLTWKSTNFKTILEWEPKPVNQVYTVQISTKSGDWKSKCFYTTDTECDLTDEIVKDVKQTYLARVFSYPAGNVESTGSAGEPLYENSPEFTPYLETNLGQPTIQSFEQVGTKVNVTVEDERTLVRRNNTFLSLRDVFGKDLIYTLYYWKSSSSGKKTAKTNTNEFLIDVDKGENYCFSVQAVIPSRTVNRKSTDSPVECMGQEKGEFRE[… about 150 residues …]
B2: IL-15/TF/IL-15 single-chain chimeric polypeptide (other)
chain: [… about 120 residues …]SGTTNTVAAYNLTWKSTNFKTILEWEPKPVNQVYTVQISTKSGDWKSKCFYTTDTECDLTDEIVKDVKQTYLARVFSYPAGNVESTGSAGEPLYENSPEFTPYLETNLGQPTIQSFEQVGTKVNVTVEDERTLVRRNNTFLSLRDVFGKDLIYTLYYWKSSSSGKKTAKTNTNEFLIDVDKGENYCFSVQAVIPSRTVNRKSTDSPVECMGQEKGEFRE[… about 120 residues …]
B3: TGFR/TF/IL-15:CD16scFv/IL-15RαSu/IL-21 protein complex (other)
chain 1: IPPHVQKSVNNDMIVTDNNGAVKFPQLCKFCDVRFSTCDNQKSCMSNCSITSICEKPQEVCVAVWRKNDENITLETVCHDPKLPYHDFILEDAASPKCIMKEKKKPGETFFMCSCSSDECNDNIIFSEEYNTSNPDGGGGSGGGGSGGGGSIPPHVQKSVNNDMIVTDNNGAVKFPQLCKFCDVRFSTCDNQKSCMSNCSITSICEKPQEVCVAVWRKNDENITLETVCHDPKLPYHDFILEDAASPKCIMKEKKKPGETFFMCSCSSDECNDNIIFSEEYNTSNPDSGTTNTVAAYNLTWKSTNFKTILEWEPKPVNQVYTVQISTKSGDWKSKCFYTTDTECDLTDEIVKDVKQTYLARVFSYPAGNVESTGSAGEPLYENSPEFTPYLETNLGQPTIQSFEQVGTKVNVTVEDERTLVRRNNTFLSLRDVFGKDLIYTLYYWKSSSSGKKTAKTNTNEFLIDVDKGENYCFSVQAVIPSRTVNRKSTDSPVECMGQEKGEFRE[… about 120 residues …]
chain 2: not shown
B4: IL-7/TF/IL-15:TGFβ Receptor II/IL-15RαSu protein complex (other)
chain 1: not shown
chain 2: IPPHVQKSVNNDMIVTDNNGAVKFPQLCKFCDVRFSTCDNQKSCMSNCSITSICEKPQEVCVAVWRKNDENITLETVCHDPKLPYHDFILEDAASPKCIMKEKKKPGETFFMCSCSSDECNDNIIFSEEYNTSNPDGGGGSGGGGSGGGGSIPPHVQKSVNNDMIVTDNNGAVKFPQLCKFCDVRFSTCDNQKSCMSNCSITSICEKPQEVCVAVWRKNDENITLETVCHDPKLPYHDFILEDAASPKCIMKEKKKPGETFFMCSCSSDECNDNIIFSEEYNTSNPDITCPPPMSVEHADIWVKSYSLYSRERYICNSGFKRKAGTSSLTECVLNKATNVAHWTTPSLKCIR
B5: TGFR/IL15RαSu-TGFR/TF/IL-15D8N protein complex (other)
chain 1: IPPHVQKSVNNDMIVTDNNGAVKFPQLCKFCDVRFSTCDNQKSCMSNCSITSICEKPQEVCVAVWRKNDENITLETVCHDPKLPYHDFILEDAASPKCIMKEKKKPGETFFMCSCSSDECNDNIIFSEEYNTSNPDGGGGSGGGGSGGGGSIPPHVQKSVNNDMIVTDNNGAVKFPQLCKFCDVRFSTCDNQKSCMSNCSITSICEKPQEVCVAVWRKNDENITLETVCHDPKLPYHDFILEDAASPKCIMKEKKKPGETFFMCSCSSDECNDNIIFSEEYNTSNPDSGTTNTVAAYNLTWKSTNFKTILEWEPKPVNQVYTVQISTKSGDWKSKCFYTTDTECDLTDEIVKDVKQTYLARVFSYPAGNVESTGSAGEPLYENSPEFTPYLETNLGQPTIQSFEQVGTKVNVTVEDERTLVRRNNTFLSLRDVFGKDLIYTLYYWKSSSSGKKTAKTNTNEFLIDVDKGENYCFSVQAVIPSRTVNRKSTDSPVECMGQEKGEFRE[… about 120 residues with changes …]
chain 2: B4 chain 2
B6: IL-18/TF/IL-15:IL-12/IL-15RαSu protein complex (other)
chain 1: not shown
chain 2: IWELKKDVYVVELDWYPDAPGEMVVLTCDTPEEDGITWTLDQSSEVLGSGKTLTIQVKEFGDAGQYTCHKGGEVLSHSLLLLHKKEDGIWSTDILKDQKEPKNKTFLRCEAKNYSGRFTCWWLTTISTDLTFSVKSSRGSSDPQGVTCGAATLSAERVRGDNKEYEYSVECQEDSACPAAEESLPIEVMVDAVHKLKYENYTSSFFIRDIIKPDPPKNLQLKPLKNSRQVEVSWEYPDTWSTPHSYFSLTFCVQVQGKSKREKKDRVFTDKTSATVICRKNASISVRAQDRYYSSSWSEWASVPCSGGGGSGGGGSGGGGSRNLPVATPDPGMFPCLHHSQNLLRAVSNMLQKARQTLEFYPCTSEEIDHEDITKDKTSTVEACLPLELTKNESCLNSRETSFITNGSCLASRKTSFMMALCLSSIYEDLKMYQVEFKTMNAKLLMDPKRQIFLDQNMLAVIDELMQALNFNSETVPQKSSLEEPDFYKTKIKLCILLHAFRIRAVTIDRVMSYLNASITCPPPMSVEHADIWVKSYSLYSRERYICNSGFKRKAGTSSLTECVLNKATNVAHWTTPSLKCIR
notes: Two-chain complex secreted from CHO-K1 cells, glycosylated; chains associate through IL-15 and the IL-15Rα sushi domain; also called 18t15-12s

Columns and labels:
[1] = biological target: IL-2Rβ and common γ chain on 32Dβ cells; assay: cell-based or functional assay
IL2Rαβγ on CTLL2 cells = biological target: T1, IL2Rαβγ on CTLL2 cells; assay: cell-based or functional assay
TGF-β1 = TGF-β1 (UniProt P01137 partial chain); assay: cell-based or functional assay
TGF-β1, sequence (P01137 279-390 limits assumed): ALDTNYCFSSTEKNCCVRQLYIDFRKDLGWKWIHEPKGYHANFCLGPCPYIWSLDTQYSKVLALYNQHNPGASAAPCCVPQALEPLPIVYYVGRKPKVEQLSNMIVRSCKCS

[2] = biological target: T2, human CD16b expressed on CHO cells; assay: flow cytometry on CHO cells stably expressing human CD16b; biotinylated anti-human tissue factor and PE conjugated streptavidin

Row | Binder | EC50, 32Dβ cell proliferation (WST1) [1] [nM] | IC50, HEK-Blue TGFβ reporter cells, 0.1 nM TGFβ1 (TGF-β1) [nM] | also measured
1 | B1 | 0.158 | – | EC50, CTLL-2 cell proliferation (WST1) (IL2Rαβγ on CTLL2 cells): 0.123 nM
2 | B2 | 0.161 | – | –
3 | B3 | 51.3 | 9.13 | –
4 | B4 | 126 | 1.14 | –
5 | B5 | – | – | IC50, HEK-Blue TGF-β cells, 0.1 nM TGF-β1 (TGF-β1): 0.0452 nM
6 | B6 | – | – | binding result [2]: no binding (tested: 1.2 µg/mL)
